In all, about 360,000 compounds went through this assay and about 7,500 (2.1%) were called active. This list was built around the results that the source calls inconclusive (neither active nor inactive); the mix of calls is not that of the screen. Calls come from the whole dose curve; as a rule, active = well fitted cell-killing curve with a large enough effect; inconclusive = small, poorly fitted or top-dose-only effect, or effect the other way, or another doubt; inactive = no such curve, though single readings can be large or run the other way. No potency is given beside an inconclusive call; the fits are too rough.
Experiment: qHTS for induction of synthetic lethality in tumor cells producing 2HG: qHTS for the HT-1080-IDH1KD cell line;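 for activity, negative = toxicity: 0% = DMSO wells and -100% = cell-free medium wells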
Settings: HT-1080 IDH1 knockdown viability, ATP luminescence, 48 h; activity, negative = toxicity: at 46.1 µM (top of the series) unless noted
Procedure, shortened: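 After a 2 h attachment period, IDH1KD HT-1080 cells took pin-transferred compound for 48 h at 37 °C; ATP-based luminescence after 10 min room-temperature reagent incubation reported viability.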
Potency is the fitted concentration of half-maximal effect; tags give direction and shape of the fitted curve.

SMILES | activity, negative = toxicity | Potency
CCOC1=C2[C@H](c3ccccc3)N(S(=O)(=O)c3ccc(C)cc3)[C@H](C(C)C)[C@H]2n2c(=O)n(-c3ccccc3)c(=O)n2C1 | inactive: 7.3% | –
CCCCCCCCN1C(=O)[C@H](CC(=O)N2CCN(C(=O)C3CC3)CC2)C[C@@]2(C(=O)OC)CC(C)(C)CC=C12 | – | inconclusive [cytotoxic, single point]
O=C(CSc1ccc(Br)cc1)NCC(c1cccs1)N1CCOCC1 (stereo not drawn) | inactive: -9.94% | –
COC(=O)c1ccc(NC(=O)COc2cccc(-n3cnnn3)c2)cc1 | – | inconclusive [cytotoxic, single point]
Brc1ccccc1Cn1c(-c2cscn2)nc2ccccc21 | – | inconclusive [cytotoxic, single point]
O=C(C(=O)N(Cc1ccccc1)Cc1ccccc1)c1c(-c2ccccc2)[nH]c2ccccc12 | – | inconclusive [cytotoxic, single point]
COC(=O)c1ccc(OCCOCCOc2cccc3ccc(C)nc23)cc1 | inactive: -0.911% | –
CC12CC3(C)CC(C)(C1)CC(C(=O)NCc1cccnc1)(C2)C3 | inactive: -12.9% | –
O=C(N/N=C/c1ccccc1O)C1CC(=O)N(c2ccc(Cl)cc2)C1 (stereo not drawn) | – | active: 3.26 µM
O=C(NCc1ccc(Cl)cc1)c1ccc(Cl)cc1[N+](=O)[O-] | – | inconclusive [cytotoxic, single point]
CN=c1scc(-c2ccccc2F)n1/N=C/c1ccc[nH]1 | – | inconclusive [cytotoxic, single point]
COc1cccc(NC2SC(=O)N(c3ccccc3)C2=O)c1 (stereo not drawn) | – | inconclusive [cytotoxic, partial curve]
Cc1oc(-c2ccc(Cl)cc2)nc1CSCC(=O)NCCCN1CCOCC1 | – | inconclusive [cytotoxic, single point]
c1ccc(-c2ccc(Oc3cc(N4CCOCC4)nc(-c4ccccc4)n3)cc2)cc1 | inactive: -22.7% | –
CN1c2ccccc2C(C)(C)C12CC(CCl)=NO2 (stereo not drawn) | inactive: 9.11% | –
Fc1ccc(/C=N/Nc2nc(-c3cccnc3)nc3ccccc23)cc1 | – | inconclusive [cytotoxic, single point]
COc1cccc(C2=CC(c3ccc(N(C)C)cc3)n3nnnc3N2)c1 (stereo not drawn) | – | inconclusive [cytotoxic, single point]
CS(=O)(=O)c1sc(C(=O)NC(=S)Nc2ccc(OC(F)(F)F)cc2)c2c1C=CCC2 | – | inconclusive [cytotoxic, single point]
COc1ccc(CN2CCC(CNS(=O)(=O)c3cccc(C(F)(F)F)c3)CC2)cc1 | – | inconclusive [cytotoxic, single point]
Cc1[nH]c2ccccc2c1C(C[N+](=O)[O-])c1cccc(O)c1 (stereo not drawn) | – | inconclusive [cytotoxic, single point]
CCCc1ccccc1OCCNS(=O)(=O)c1cc2c(cc1C)OCC(=O)N2 | – | inconclusive [cytotoxic, partial curve]
O=C(CCC(=O)Nc1ccccc1)NNC(=O)C(c1ccccc1)c1ccccc1 | – | inconclusive [cytotoxic, single point]

SMILES | activity, negative = toxicity | Potency
O=C(Nc1ccc(N=Nc2ccccc2)c(NC(=O)C2CCCO2)c1)C1CCCO1 (stereo not drawn) | – | inconclusive [cytotoxic, single point]
CCOC(=O)C1=C(C)N=c2s/c(=C\c3ccc(OCC(=O)O)cc3)c(=O)n2C1c1ccc(Cl)cc1 (stereo not drawn) | – | inconclusive [cytotoxic, single point]
Cc1ccc(S(=O)(=O)NCc2ccc(C(=O)N3CCN(c4ccc([N+](=O)[O-])cc4)CC3)cc2)cc1 | inactive: -4.86% | –
Cc1ccc(NC(=O)/C=C/c2ccc(S(=O)(=O)N3CCOCC3)cc2)cc1S(=O)(=O)N(C)C | – | active: 25.9 µM
CN(CCc1ccccc1)C(=O)c1ccc(NC(=O)Cc2ccc(NC(=O)C3CCCN(C(=O)C4CCCCC4)C3)cc2)cc1 (stereo not drawn) | inactive: -8.43% | –
NC(=NCCc1ccccc1)c1cccc([N+](=O)[O-])c1 | inactive: -5.17% | –
CC1=C(C(=O)OCc2ccc3c(c2)OCO3)C(c2ccc(O)c([N+](=O)[O-])c2)NC(=O)N1 (stereo not drawn) | inactive: -7.66% | –
O=C(CSC1=NNC(c2ccccn2)S1)Nc1ccc(C(F)(F)F)cc1 (stereo not drawn) | – | active: 4.11 µM
O=C(N[C@@H]1C/C=C\C[C@H](CC(=O)N(CCO)Cc2ccccc2)C(=O)NC[C@@H](c2ccccc2)OC1=O)OCC1c2ccccc2-c2ccccc21 | – | inconclusive [cytotoxic, single point]
CC(C)CC(=O)Nc1ccc(-c2cn3ccsc3n2)cc1 | – | inconclusive [cytotoxic, single point]
O=C(CSc1ncnc2c1oc1ccccc12)Nc1cccc(C(F)(F)F)c1 | – | inconclusive [cytotoxic, single point]
Cc1ccc2nc(-c3ccc(NC(=O)c4ccco4)cc3)[nH]c2c1 | – | inconclusive [cytotoxic, single point]
COCCNC(=O)c1ccc2c(=O)n(Cc3ccco3)c(SCC(=O)Nc3ccc(OC)cc3OC)nc2c1 | – | inconclusive [cytotoxic, single point]
Cc1nc2c(nc1C)C(=O)c1ccccc1C2=O | – | active: 18.4 µM
CS(=O)(=O)N(CC(=O)N1CCN(c2ccccc2)CC1)c1ccc(Cl)c(C(F)(F)F)c1 | inactive: -19.2% | –
COc1ccc2sc(-c3ccc(SC)cc3)c(C#CCO)c2c1 | – | inconclusive [cytotoxic, partial curve]
CC(=Nc1ccccc1)C1=C(O)C(Cc2ccc(F)cc2)NC1=O (stereo not drawn) | – | active: 2.59 µM
CC(=O)N1N=C(c2ccc(Cl)cc2)CC1c1ccco1 (stereo not drawn) | inactive: -1.81% | –
CCc1nc2ccc(C(=O)Nc3cccc(OCC(=O)N(C)C)c3)cn2c1N(C)Cc1cc2ccccc2s1 | – | inconclusive [cytotoxic, single point]
COc1ccc(CCNC(=O)Nc2nc(C(N)CCc3ccccc3)cs2)cc1OC (stereo not drawn) | – | inconclusive [cytotoxic, single point]
Cc1ccc2nc(SC(C(=O)c3ccccc3)c3ccccc3)nc(C)c2c1 (stereo not drawn) | inactive: -1.92% | –
